According to PMC4336329 (PLoS ONE, 2015):
In all, about 310,000 compounds went through this assay and about 2,200 (0.71%) showed an effect of 50% or more. Effects have a minus sign here. The list shows a part of the results.

biological target: human ether-à-go-go-related gene (hERG) potassium channel (human, UniProt Q12809); assay: primary screen, population patch clamp on CHO cells stably expressing hERG
Sequence (Q12809 whole entry, looked up): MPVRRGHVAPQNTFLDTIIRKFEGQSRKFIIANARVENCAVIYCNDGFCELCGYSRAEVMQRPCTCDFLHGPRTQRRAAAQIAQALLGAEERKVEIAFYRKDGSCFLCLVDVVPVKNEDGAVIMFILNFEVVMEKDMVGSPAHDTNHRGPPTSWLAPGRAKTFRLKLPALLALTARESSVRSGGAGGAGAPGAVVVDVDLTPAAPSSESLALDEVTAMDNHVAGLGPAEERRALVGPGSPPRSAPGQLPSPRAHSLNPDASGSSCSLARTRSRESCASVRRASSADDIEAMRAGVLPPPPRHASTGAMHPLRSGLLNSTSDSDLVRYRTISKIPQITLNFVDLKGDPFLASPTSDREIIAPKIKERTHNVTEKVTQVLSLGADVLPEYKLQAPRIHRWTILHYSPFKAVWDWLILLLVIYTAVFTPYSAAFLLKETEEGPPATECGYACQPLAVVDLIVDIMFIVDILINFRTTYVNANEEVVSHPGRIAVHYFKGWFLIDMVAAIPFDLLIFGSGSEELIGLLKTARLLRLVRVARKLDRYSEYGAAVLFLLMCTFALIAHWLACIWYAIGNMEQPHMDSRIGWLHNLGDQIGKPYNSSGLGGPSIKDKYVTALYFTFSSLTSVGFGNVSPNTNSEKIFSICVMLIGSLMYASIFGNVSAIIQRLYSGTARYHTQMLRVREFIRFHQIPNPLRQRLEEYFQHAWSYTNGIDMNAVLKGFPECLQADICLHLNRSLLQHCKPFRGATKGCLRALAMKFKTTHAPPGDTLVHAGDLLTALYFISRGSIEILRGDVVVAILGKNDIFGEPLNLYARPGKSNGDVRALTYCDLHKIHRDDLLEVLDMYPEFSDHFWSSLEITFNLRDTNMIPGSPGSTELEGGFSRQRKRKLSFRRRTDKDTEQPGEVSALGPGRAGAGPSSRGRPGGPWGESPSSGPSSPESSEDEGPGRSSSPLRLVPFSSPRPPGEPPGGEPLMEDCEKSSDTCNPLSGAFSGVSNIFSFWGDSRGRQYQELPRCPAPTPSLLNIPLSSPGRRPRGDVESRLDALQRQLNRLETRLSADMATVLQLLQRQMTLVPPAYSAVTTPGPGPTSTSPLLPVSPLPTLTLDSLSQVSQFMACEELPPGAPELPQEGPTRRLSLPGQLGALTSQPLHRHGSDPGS

| Compound | hERG current change (%, negative = inhibition) at 1uM |
| --- | --- |
| C/C(=N\NC(=O)c1ccc(-c2ccccc2)cc1)C1C(=O)c2ccccc2C1=O | 18% |
| O=C(O)COc1ccc(/C=C2\SC(=Nc3ccccc3)N(c3ccccc3)C2=O)cc1 | 12.9% |
| CCOc1ccc(-c2nc(C)sc2CC(=O)O)cc1 | 14.1% |
| Cc1ccc(NC(=S)N/N=C/c2c(C)[nH]c3ccccc23)cc1 | 14.9% |
| CC1CN(C(=S)Nc2ccc(Br)cc2)CC(C)O1 (centres unmarked) | 19.9% |
| Cc1cc(NC(=O)CSc2nc(-c3ccc(Cl)cc3)cs2)no1 | -6.66% |
| CNC(=O)CCc1nc(-c2ccc(C(C)(C)C)cc2)no1 | 9.01% |
| COc1cc(C2N(c3ccc(Cl)cc3)C(=O)C3CCCN32)cc(OC)c1OC (centres unmarked) | 4.22% |
| CC1CC(=O)N(C)c2ccc([N+](=O)[O-])cc2N1 (centres unmarked) | 0.469% |
| N#CC(c1cccc(C(F)(F)F)c1)(c1ncc(C(F)(F)F)cc1Cl)N1CCOCC1 (centres unmarked) | 9.05% |
| Cc1ccc(NCc2ccccc2F)cc1 | -0.66% |
| COc1ccc(-c2cc(C(=O)N/N=C/c3ccc4c(c3)OCO4)c3ccccc3n2)c(OC)c1 | 9.83% |
| CCSc1nc2c(c(=O)n1Cc1ccccc1)SC(C)C2 (centres unmarked) | 5.63% |
| Cc1cccc2[nH]c(SCC(=O)N3CCOCC3)nc12 | 0.0741% |
| O=C(Cn1ncc2c1-c1ccccc1OC2)N1CCN(Cc2ccccc2)CC1 | -58% |
| O=C1Nc2cc(C(=O)N3CCc4ccccc4C3)ccc2S/C1=C\c1ccccc1 | -2.47% |
| O=C(NCc1csc(-c2ccccc2)n1)c1ccco1 | -10.7% |
| COc1ccccc1N1C(=O)c2ccc(C(=O)Nc3ccc(C(=O)O)cc3)cc2C1=O | 15% |
| CCN(CC(=O)Nc1ccc(Br)cc1F)CC(=O)NC1CCS(=O)(=O)C1 (centres unmarked) | 14.2% |
| C=CCNC(=S)NNC(=O)c1ccc2c(c1)OCO2 | 0.265% |
| CC(=O)c1cccc(NC(=O)CCOc2ccccc2)c1 | 8.13% |
| COc1ccc(/C=N/Nc2nc(N3CCCC3)nc(N3CCCC3)n2)c(OC)c1OC | 4.64% |

| Compound | hERG current change (%, negative = inhibition) at 1uM |
| --- | --- |
| COc1cc(/C=N/Nc2nn3cnnc3c3ccccc23)ccc1O | 20.3% |
| Cc1cc(C)n(-c2nc(N(c3ccccc3)c3ccccc3)nc(-n3nc(C)cc3C)n2)n1 | 11.6% |
| CN(CC(=O)Nc1sccc1C#N)Cc1ccccc1 | 4.37% |
| COc1cccc(NC(=O)CNC(=O)c2ccccc2)c1 | 5.93% |
| Cn1nc(-c2ccccc2)c(N2CCCCC2)cc1=O | 11.7% |
| CC1CC1C(=O)OCC(=O)Nc1cccc(S(=O)(=O)NC2=NCCCCC2)c1 (centres unmarked) | -3.21% |
| CCOC(=O)C(CCCCOc1cccc(CC)c1)C(=O)OCC | 10.2% |
| COc1ccc(C(CNC(=O)c2cccc(N(C)C)c2)N2CCCC2)cc1 (centres unmarked) | -10.2% |
| O=C(CSCc1ccccc1)N1CCN(Cc2ccc3c(c2)OCO3)CC1 | 4.72% |
| O=C(COC(=O)c1ccc(Cl)nc1)NC(=O)c1ccc(OC(F)F)cc1 | -6% |
| O=C(COC(=O)CNC(=O)c1ccc(Cl)c([N+](=O)[O-])c1)NNC(=O)c1cccs1 | 16.6% |
| CC1(C)CN=C(NCc2ccccc2Cl)S1 | -11.3% |
| Cc1onc(-c2ccccc2Cl)c1C(=O)NCc1ccccc1 | 18.2% |
| COc1cc(CN2CCC(C(=O)N3CCCC(C)C3)CC2)cc(OC)c1O.O=C(O)C(=O)O (centres unmarked) | 10.5% |
| CC1CCN(CCCNC(=O)CN2C(=O)CSc3ccc(S(=O)(=O)N4CCC(C)CC4)cc32)CC1 | -13.9% |
| O=C(NNS(=O)(=O)c1ccc(Cl)cc1)NC1CCCCC1 | 8.84% |
| COC(=O)c1cc(C#N)c(NCc2ccccc2)nc1C | -2.99% |
| NC(=O)c1ccc(NC(=O)COC(=O)CC(NC(=O)c2ccccc2Cl)c2ccccc2)cc1 (centres unmarked) | 8.54% |
| CCCCCCC#Cc1cncc(C(=O)NNC(=O)Nc2cc(Cl)cc(Cl)c2)c1 | 13.8% |
| Cc1ccc(/C=N/NC(=O)CNC(=O)c2ccc(C)c([N+](=O)[O-])c2)o1 | 10.3% |
| O=C(Nc1ccc(Cl)cc1)Nc1ccc(C(=O)N2CCOCC2)cc1 | 1.18% |
| CCc1nc(SCC(=O)Nc2ccccc2)c2c(=O)n(C)c(=O)n(C)c2n1 | 8.29% |
